# Data taken from PMC4336329 (PLoS ONE, 2015).
# Out of some 310,000 compounds screened, about 14,000 (4.5%) showed an effect of 50% or more. The effect is printed as a negative number. Some of the results follow.
# Target: human ether-à-go-go-related gene (hERG) potassium channel (human, UniProt Q12809)
# Assay: primary screen, population patch clamp on CHO cells stably expressing hERG
# 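Also: peak tail current of the secondary pulse compared with the same well before compound.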
# human ether-à-go-go-related gene (hERG) potassium channel, sequence (Q12809 whole entry, looked up): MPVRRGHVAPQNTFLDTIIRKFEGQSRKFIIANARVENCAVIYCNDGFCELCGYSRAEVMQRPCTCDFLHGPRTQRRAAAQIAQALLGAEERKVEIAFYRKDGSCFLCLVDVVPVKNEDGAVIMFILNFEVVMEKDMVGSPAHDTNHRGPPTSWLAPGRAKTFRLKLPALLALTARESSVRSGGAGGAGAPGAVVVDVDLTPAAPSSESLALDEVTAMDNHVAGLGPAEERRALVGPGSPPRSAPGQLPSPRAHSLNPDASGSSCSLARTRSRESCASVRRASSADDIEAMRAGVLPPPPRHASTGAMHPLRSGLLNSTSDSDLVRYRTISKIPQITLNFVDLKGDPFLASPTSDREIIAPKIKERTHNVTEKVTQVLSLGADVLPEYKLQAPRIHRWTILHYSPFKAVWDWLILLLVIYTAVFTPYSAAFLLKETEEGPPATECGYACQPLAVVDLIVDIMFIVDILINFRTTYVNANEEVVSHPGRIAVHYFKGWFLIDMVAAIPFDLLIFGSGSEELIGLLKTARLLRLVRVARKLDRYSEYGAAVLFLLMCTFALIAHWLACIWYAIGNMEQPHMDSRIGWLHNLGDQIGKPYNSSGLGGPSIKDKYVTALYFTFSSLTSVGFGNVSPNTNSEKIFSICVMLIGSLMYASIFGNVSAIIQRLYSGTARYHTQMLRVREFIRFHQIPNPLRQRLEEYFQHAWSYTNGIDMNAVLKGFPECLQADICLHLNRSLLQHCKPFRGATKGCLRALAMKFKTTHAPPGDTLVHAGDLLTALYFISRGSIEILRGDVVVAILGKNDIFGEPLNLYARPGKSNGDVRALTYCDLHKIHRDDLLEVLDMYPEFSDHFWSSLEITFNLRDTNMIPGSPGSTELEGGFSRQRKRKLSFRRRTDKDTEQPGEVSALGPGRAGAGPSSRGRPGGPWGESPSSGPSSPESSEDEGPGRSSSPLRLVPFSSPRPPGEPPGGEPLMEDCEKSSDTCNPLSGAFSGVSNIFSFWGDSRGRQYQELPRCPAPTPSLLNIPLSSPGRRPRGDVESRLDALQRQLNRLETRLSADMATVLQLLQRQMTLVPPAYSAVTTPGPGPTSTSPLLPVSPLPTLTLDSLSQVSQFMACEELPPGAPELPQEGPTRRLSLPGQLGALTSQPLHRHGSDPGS
row,Compound,"hERG current change (%, negative = inhibition) at 10uM"
1,COc1ccc(Nc2nnc(-c3ccc(C(=O)NCCO)cc3)c3ccccc23)cc1,-4.6%
2,CC(C)(C)C1CCC(=NNC(=O)C2COc3ccccc3O2)CC1 (centres unmarked),0.995%
3,CC1CCCC(C)N1C(=O)COc1ccc([N+](=O)[O-])cc1Cl (centres unmarked),-1.05%
4,COc1ccc(C(=O)Nc2nc(-c3ccc([N+](=O)[O-])cc3)c(-c3ccccc3)s2)cc1,4.35%
5,CC1Cc2cc(S(=O)(=O)NCc3ccccc3)ccc2N1C(=O)C1CCC1 (centres unmarked),20.7%
6,COc1cccc(C(=O)N(Cc2ccc(N(C)C)cc2)C2CCS(=O)(=O)C2)c1 (centres unmarked),-18.1%
7,CCCCSC1=C(C#N)C(c2ccccc2C)CC(=O)N1 (centres unmarked),5.6%
8,O=C(c1cc(COc2cccc(C(F)(F)F)c2)on1)N1CCC(c2ccncc2)CC1,-78.8%
9,Cc1cc(=O)[nH]c(N/N=C/C=C/c2ccccc2)n1,-46.9%
10,O=C(NC(=S)Nc1ccc(S(=O)(=O)Nc2nccs2)cc1)c1cccnc1,23.1%
11,CC(=O)c1sc(NC(=O)CCS(=O)(=O)c2ccc(Cl)cc2)nc1C,-5.04%
12,O=C(CSc1nncn1-c1ccccc1)Nc1ccccc1,-0.536%
13,O=C(O)COc1ccc(/C=C/C(=O)c2ccc3ccccc3c2)cc1,14.3%
14,Cc1ccc(-c2nc(CS(=O)(=O)CC(=O)Nc3cc(F)ccc3F)c(C)o2)cc1,-2.41%
15,Cc1nnc2ccc(-c3ccc(NC(=O)c4cccnc4Cl)cc3)nn12,-0.347%
16,Cc1cc(C)c(C)c(S(=O)(=O)N2CCN(CC(=O)NC(=O)NCc3ccccc3)CC2)c1C,11.2%
17,O=C(COC(=O)c1ccc(Cl)cc1)NC1CCCCCC1,8.02%
18,CC(C)(C)c1cc2cccnc2n1Cc1cccc(Cl)c1,-37.8%
19,O=C(O)c1cccc(Nc2ccc([N+](=O)[O-])c3nonc23)c1,8.47%
20,Cc1ccc(NC(=S)N(Cc2cccs2)Cc2cc3cccc(C)c3[nH]c2=O)cc1,-9.88%
21,CCOC(=O)/C(C#N)=C/c1ccc(OC(=O)c2ccco2)c(OCC)c1,0.972%
22,O=C(Nc1ccc2nn(-c3ccccc3)nc2c1)c1ccc(Br)o1,7.88%

row,Compound,"hERG current change (%, negative = inhibition) at 10uM"
1,COc1ccccc1-n1c(SCC(=O)N2CCOCC2)nc2cccnc21,1.31%
2,O=C(O)[C@@H]1CC(O)CN1C(=O)CCc1c[nH]c2ccccc12 (some centres unmarked),7.3%
3,O=C(c1cc2cc(Cl)ccc2[nH]1)N1CCCCC1,-4.79%
4,CCCOc1ccc(N2C(=O)CC(N3CCN(CCN=CC4C(=O)CC(C)(C)CC4=O)CC3)C2=O)cc1 (centres unmarked),-7.04%
5,COCCn1c(SCC(=O)Nc2ccc(C)cc2)nc2c(oc3ccccc32)c1=O,9.31%
6,COc1ccccc1-n1cnc2c(c1=O)c1nc3ccccc3nc1n2-c1ccc(C)cc1,-19.7%
7,CCOC(=O)[C@@H]1[C@H]2COc3cc(OC)ccc3[C@@H]2N2C(=O)N(c3ccc(C(F)(F)F)cc3)C(=O)[C@@]12C,0.831%
8,CN(C)/C=C/C(=O)c1ccc(-n2cccc2)cc1,-17.1%
9,O=C(CSc1nc2ccccc2[nH]1)NC(=O)NCc1ccco1,-9.5%
10,COc1ccc(N(C)C(=O)c2cc3c(s2)-c2ccccc2OC3)c(OC)c1,-1.98%
11,Cc1ccc(C2=CC(c3ccc(C)cc3)n3ncnc3N2)cc1 (centres unmarked),-17.6%
12,NC1=NC2(CCN(Cc3ccccc3)CC2)n2c(nc3ccccc32)N1,-15.8%
13,COc1cccc(C2NC(=O)NC(C)=C2C(=O)Nc2ccc(C)cc2)c1 (centres unmarked),12.6%
14,CN(C)CCCN(C(=O)c1ccc(S(=O)(=O)N(C)Cc2ccccc2)cc1)c1nc2cc3c(cc2s1)OCO3.Cl,-51.7%
15,O=c1c2ccccc2sn1-c1ccc(F)cc1,16.1%
16,S=C(Nc1ccccc1Cl)NC1CCCCCC1,-8.92%
17,O=C(Nc1nccs1)C12CC3CC(C1)CC(C(=O)Nc1nccs1)(C3)C2,-11.1%
18,CN(C[C@H](Cc1ccccc1)N(C[C@H](Cc1cccc2ccccc12)N(CCc1ccccc1)N=O)N=O)N=O.[Na+],11.2%
19,Cc1ccc[n+](CC(=O)Nc2ccc(C)c(C)c2)c1.[Cl-],10.4%
20,COc1ccccc1NC(=O)c1ccccc1-c1ccccc1C(=O)O,19.3%
21,COCCn1cc(C(=S)N2CCCCC2)c2ccccc21,8.68%
22,Cc1nc2sc(-c3ccccc3)nn2c(=O)c1Br,-1.74%

row,Compound,"hERG current change (%, negative = inhibition) at 10uM"
1,CC(=O)NC1C(=O)N=C(SC(C)C(=O)Nc2cccc(Cl)c2)NC1=O (centres unmarked),16.4%
2,CC(C)N(C)C(=O)CCc1nnc(CCc2c[nH]c3ccccc23)o1,6.75%
3,O=C(COC(=O)c1ccc(F)cc1F)Nc1ncccn1,-3.24%
4,COc1ccc2c(Cl)c(C(=O)NCc3ccco3)sc2c1,-3.47%
5,CCOC(=O)c1oc2ccc(OC)cc2c1NC(=O)CN1CCN(C)CC1.Cl,-5.54%
6,O=C(O)c1cc2c(cc1NC(=O)c1c(F)cccc1Cl)OCCCO2,5.08%
7,O=C(CN1CCN(Cc2ccccc2)CC1)Nc1ccc([N+](=O)[O-])cc1C(=O)Nc1ccccc1F,-77.5%
8,COc1cc(CN2CCN(c3cc(C)ccc3C)CC2)ccc1O,-33.2%
9,FC(F)(F)c1ccc(C2[C@H]3CN(Cc4ccc(-c5ccccc5)cc4)[C@H](c4ccccc4)C34CC2(c2cccnc2)C4)cc1 (some centres unmarked),14.9%
10,COc1ccc(-n2c(-c3ccc(C)cc3)n[nH]c2=S)cc1,15%
11,CC(C)=N/N=C(\c1cccc([N+](=O)[O-])c1)C12CN3CN(CN(C3)C1)C2,7.66%
12,Cn1c(-c2ccc(-c3ccccc3)cc2)c[nH]c1=S,6.28%
13,COC(=O)CSc1cc(C)nc(NC(C)=O)n1,3.82%
14,CC(=O)Nc1ccc(NC(C)=O)c(NC2OCC(O)C(O)C2O)c1 (centres unmarked),11.7%
15,CCC(C)NC(=O)c1cc(-c2ccc(OC)cc2)on1 (centres unmarked),-10.1%
16,Cc1ccc(S(=O)(=O)N2CC(O)C[C@H]2C(=O)OCC(=O)c2ccccc2)cc1 (some centres unmarked),-8.42%
17,O=C1C(Cl)=C(NS(=O)(=O)c2ccc([N+](=O)[O-])cc2)C(=O)c2ccccc21,10.6%
18,Cc1cc2c(cc1S(=O)(=O)NCC(C)c1ccccc1)n(C)c(=O)c(=O)n2C (centres unmarked),-22.1%
19,COC(=O)c1ccc(-c2ccc(C(c3c(C)[nH][nH]c3=O)c3c(C)[nH][nH]c3=O)o2)cc1,32.9%
20,O=C(CC1OC(=O)c2ccccc21)Nc1ccc(Cl)c(S(=O)(=O)N2CCCCC2)c1 (centres unmarked),-23.1%
21,CNC(=S)N/N=C/C1=CCC2CC1C2(C)C (centres unmarked),-3.84%
22,Cc1cc[n+](-c2[nH]c(=O)sc2/C=N/NC(=O)c2ccccc2[O-])cc1C,-4.76%

row,Compound,"hERG current change (%, negative = inhibition) at 10uM"
1,Cc1ccc(-n2nc(-c3cccs3)cc2C(=O)NCC2CCCO2)c(C)c1 (centres unmarked),-40.3%
2,COCC(C)NC(=O)NC(=O)c1ccc(Cl)cc1 (centres unmarked),-0.149%
3,C=CCO/N=C(/C)c1ccc(Oc2cnccn2)cc1,-4.06%
4,O=C(Nc1ccc2oc(-c3ccccc3F)nc2c1)c1ccco1,-16.1%
5,O=[N+]([O-])c1cnc[nH]1,14.5%
6,CS(=O)(=O)Oc1ccc(/C=N/NC(=O)c2ccncc2)cc1,-2.46%
7,N#Cc1cnc(Sc2ccccc2)nc1,4.21%
8,Nc1c(C(=O)N/N=C/c2ccc(OCc3ccccc3)cc2)cnn1-c1ccccc1,26%
9,CCN(CC)CCn1c2c(c(SCC(=O)Nc3nc4ccccc4s3)nc1=O)CCC2,-58.3%
10,Cc1c(C(=O)Nc2nccs2)oc2ccc(F)cc12,4.22%
11,O=C(CCCOc1cccc(Br)c1)NC1CCC(O)CC1 (centres unmarked),4.76%
12,Cc1cccn2c(=O)c3cc(C(=O)NCCc4ccccc4)sc3nc12,-6.84%
13,COC(=O)c1cc(Br)c(=O)n(CCc2ccccc2)c1,-9.76%
14,CCN(CC)CC(=O)Nc1cccc2c1C(=O)c1ccccc1C2=O,11.5%
15,COc1ccc(S(=O)(=O)N2CCOC23CCN(S(=O)(=O)c2ccccc2)CC3)cc1,8.72%
16,Cc1cc(C(=O)c2cnc(/N=C/N(C)C)s2)cc(C)c1O,5.94%
17,CC(=O)c1ccc(N2CCN(C(=O)c3ccc4c(c3)OCO4)CC2)cc1,-45.4%
18,CNC(C)C#Cc1ccc2c(=O)c3cc(C)c(C)cc3oc2c1 (centres unmarked),-6.27%
19,Cc1ccc(NS(=O)(=O)c2ccc3c(c2)CC(=O)N3)c(C)c1,-14.2%
20,O=C(CCS(=O)(=O)c1cccc2nonc12)N1CC(=O)N(CCc2ccccc2)C(=O)C1,-15.6%
